Assay results published in the supplement of paper PMC11417369.
Some of the results follow.

system: PfSIP2 AP2 domain 1 (GST-tagged); test: gcPBM binding intensity (ln(normalized median fluorescence intensity)); higher = stronger DNA binding
Outline: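 Plasmodium falciparum DNA-binding domains carrying a GST tag were expressed in E. coli and applied for 1 h, at about 25 μg on average, to an Agilent 4 × 180k array. The array held primer-extended double-stranded 36-bp intergenic genomic probes together with negative controls, and binding took place in 1× PBS with 1% milk, 0.2 mg/ml BSA, 0.5% salmon testes DNA and 0.03% Triton X-100. An Alexa488 anti-GST antibody detected bound protein, and the array was scanned at 488 nm. Binding intensity is taken as the highest Masliner-normalised natural-log median intensity across replicate spots of either probe orientation.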

Sequence	gcPBM binding intensity (ln)
TGGAATAAAAAAAGGAGTACAATTAATTATTCTTAA [XGTACX_site8299]	6.63
TATATATATATATATGTGCACATATTTATATGTTTT	9.47
ACTTATAATATTTAGTGTACATATTGTGACTAATAC [XGTACX_site1508]	7.35
AAAAAAAAAACAAATGCATGTAATATAAGAATTACA [TGCATGCA_site908]	6.77
TATTTATAAATTTACACACACACATGTGAACATAAA [CACACA_site1909]	7.12
ATTTTAAAAAATTAATGTACTTAATTAATACTGAAA [XGTACX_site7702]	6.78
TATCAAAAAAAAAGTAGTACGATAATAGTTTCCCAA [XGTACX_site1812]	7.01
TTTATGTATTTAATATGTACATATAGTTGTTAATAA [XGTACX_site1938]	7.02
GCTATATATTAATGTTGTACTTTATGTTCATATTGT [XGTACX_site3619]	7.22
AAAATGTACGCATATACACACACATAAATAGATACG [CACACA_site9124]	7.3
AAGAAATAATTATTATGTACTTAAAAAAATTAAAAT [XGTACX_site7423]	7.16
AAGAAATAAATACATACACACATATATAAATAAATA [CACACA_site7559]	6.89
ATATATATATAATTATATAAAATATATCATATGTTA [XGTACX_negctrl_site47]	8.67
ACATCATAAAATTTATGTACACATTTTTAATTATAC [XGTACX_site7759]	7.26
ATCATTTTTATGTACACACACATATACGTTGAATAT [CACACA_site1865]	7.32
AAGGTATACACTGCTTTATCAAGTTTAACTCTTTTT [XGTACX_negctrl_site118]	6.6
TATAAAATTTACGTGTGTACATATTTAATAATTTTT [XGTACX_site5001]	7.18
AAGATATGAGGGAATACACACATATTTATATTTATA [CACACA_site6846]	6.7
TAAATATAGAAACACACACACATTAATACATATATT [CACACA_site3489]	6.92

Sequence	gcPBM binding intensity (ln)
AAATTTGAAATGCATGAACACACACCGCTATAAATG [CACACA_site8230]	7.08
TAATTTTTTATATATTGTACAAATAATATATGATGT [XGTACX_site268]	7.4
TTCGTAATTTATATCACACACATATATATATAATAA [CACACA_site3115]	7.5
CAACTTTATACATATAGTACAAGTTATATTTTATTA [XGTACX_site6651]	6.9
AACGATTTACATCACTGTACTAATGATATACCTCAT [XGTACX_site7463]	6.89
TATATATATATATATTGTACTATATAGTATCTTTTT [XGTACX_site1646]	9.07
TATATATTTTCTTTTGCACACTGTTTTCCTTTTTTT [CACACA_site2739]	7.02
CTTTCCATATATGATAGTACACGATAAAAAAAAAAA [XGTACX_site5772]	7.23
AAAGAAATAAGGTGCACACATATACATATATATATA [CACACA_site429]	11.9
TTTAAAAAAAATTCATATTATATATATATATATTAT [CACACA_negctrl_site1733]	7.3
TTCTTTTTTATTTTTCAACACACATAATAAATTTCT [CACACA_site8253]	7.51
TTATAATTTTTCTATTGTACATTTAATAATATATAT [XGTACX_site7326]	7.23
TTATACATATTTATATGTACGTAATATAATATTAAT [XGTACX_site6520]	6.96
ATGAAGAAATAAATGTGTACATATCTTAGTATCATA [XGTACX_site8658]	7.21
TATTTAATTTATACACGTACATATATAAATAATACA [XGTACX_site1148]	7.28
TATAATGATGATGATAGTACGTATTAGTATAAAAAA [XGTACX_site9]	7.24
TCATGGGTGTATTTCACACACGGATAATCATTTATA [CACACA_site4663]	6.79
AGAAATAAAAAAAAAAATATATATATTATATATATA [CACACA_negctrl_site1799]	7.83
ATATTTTTTTTTGTTACACACGTTTTTTAAAAAATG [CACACA_site1603]	7.4

Sequence	gcPBM binding intensity (ln)
TCATAAAAATAAAAATGTACACATTAGAAATATTGT [XGTACX_site3671]	6.87
TTACTATAAAATGTCACACATTCTGTTTCCTTACTT [CACACA_site5714]	6.7
TCAACAAAATTGAAGGAACACACATACATATATATA [CACACA_site7940]	7.51
TATAAATATCTGTATGCACACATTTTTTTTGGAAAA [CACACA_site4734]	8.04
ATTTTTTCTCATAAAAACGTGAACGTTTATTTTACA [CACACA_negctrl_site1041]	6.95
ATTATAAAAGAATTTTTTTTTATTTCATTAAAATAT [CACACA_negctrl_site1137]	6.57
AGCACATAAATAATTAAACACACATTGTTCTAGACA [CACACA_site8746]	6.89
AAAAAAATACATACGTGTACCCACATATATGTATCT [XGTACX_site5319]	6.67
GTTTCTACTTATATAACAGGACACGTGTGAATAATT [TGCATGCA_negctrl_site430]	7.26
TTGAAGGTGGCAATGTGTACATAGAATAACCAGTGC [XGTACX_site4738]	7.19
ACAATTGCATCTATCACACATACATACATACATACA [CACACA_site5063]	8.23
AAAAAAAAAAAACATTGTACGCACATTTTATATGTC [XGTACX_site6974]	7
GCAAGTCCATGAACGGTGCAGGAATTAACAAAAATA	9.11
AATAAAAATAAAAGCACACATAAATATATATATATT [CACACA_site1441]	6.95
TCATGGCCATTTTCAGTGCATATGTGTATTTAATAT [GTGCAC_site9529]	7.92
TGCATAATTAAAAATGGTACACTGTATTTATAATAT [XGTACX_site1575]	7.13
TATAAATTAAGATAACGTACATATAATAATATAAAC [XGTACX_site487]	7.07
TGTACAGTATATACAACACACATTTGTATAAATATA [CACACA_site1002]	6.93
TGTACACCCAGAAATGCACACACATATATATATATA [CACACA_site8716]	9.53
